The other results are listed elsewhere or left out. Viral Rep nickase domains cut single-stranded DNA in vitro at 3 µM enzyme and 37 °C for 1 h; the strands have 90 letters, of which the middle is given. Values are log2 of uncut reads against the no-enzyme pool; the lower, the more was cut; hits are not called. Counts are relative to all reads; uncut strands gain when others are lost, and binding without cutting may add a little.
system: T1, Rep nickase domain of tomato golden mosaic virus; test: uncleaved DNA left, log2 of reads against the no-enzyme library (log2 ratio); higher = less cleavage (more negative = more Rep cleavage of the k-mer); sequences stand for … in CTCGTCCG…ACCGGAGA
T1 sequence (residues 1-124 of Rep, tag left off): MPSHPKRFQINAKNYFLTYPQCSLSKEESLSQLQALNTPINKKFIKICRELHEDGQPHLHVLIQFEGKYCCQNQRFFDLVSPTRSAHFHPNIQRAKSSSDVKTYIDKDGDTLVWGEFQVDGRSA
Protocol: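 A pool of 90-nt single-stranded DNAs with seven random bases just before the constant AC of the nick site (name = the seven bases) was cut by 3 µM recombinant His6-SUMO-tagged Rep nickase domain (300 nM DNA, 50 mM HEPES pH 8.0, 50 mM NaCl, 1 mM MnCl2, 1 h, 37 °C, three replicates). Uncut DNA was amplified and sequenced.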

Sequence | uncleaved DNA left (log2)
ACAGGCT | 0.0542
GATCAGA | 0.036
AACATAC | 0.0179
CATCCGG | 0.0919
AGAGTTC | 0.0176
TTAGGGG | 0.0222
CAGGCGC | -0.124
ACTCTCA | 0.0295
CATTCCA | -0.101
AATAATG | 0.0965
GGATGCA | -0.0359
CTAACGC | -0.142
ACGTCCA | -0.0465
AATGTAG | 0.0161
TTATGAA | 0.0411
ATTTCCA | 0.0294
CTTCGAC | 0.0363
CTTGGAT | 0.0927
TGCAGTT | -0.042
GTGCTAG | -0.0864

Sequence | uncleaved DNA left (log2)
CAGTTTG | 0.00676
GTACGAT | 0.137
GTAAATA | 0.0741
AGCTGAT | 0.114
GTGCTGT | 0.0394
GCGAACA | -0.0868
CGGCCCA | -0.271
TACCGTG | -0.123
CTGCACA | -0.214
CAATCAC | -0.336
TCCAACT | -0.0482
CAAAGGG | -0.0083
GGTGTCA | 0.0437
ACCGGTC | -0.00772
AGTGGTC | -0.0276
AGTCAGG | 0.0629
ACTGCAA | 0.0307
TTAATCC | -0.057
TATTCTA | -0.0753
AGAGACA | 0.0766
